# Assay results: the supplement of paper PMC4604168 (melanoma cell lines)
# Some of the results follow. Most values come without repeats; read them as rough.
# Tested on: WM3619
# Test: cell count relative to DMSO control; melanoma cells; higher = more viable cells
# Settings: library dose: standard library concentration; 72 h
# 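Note: cells treated in 1,536-well plates, then fixed and DAPI-stained, with nuclei counted from automated high-throughput microscope images.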
row,SMILES,cell count [%]
1,"CCN(CC)CCNC(=O)c1c(C)[nH]c(/C=C2\C(=O)Nc3ccc(F)cc32)c1C [sunitinib] + COc1cc(Nc2ncc(F)c(Nc3ccc4c(n3)NC(=O)C(C)(C)O4)n2)cc(OC)c1OC [Tamatinib] (first compound 2 µM, partner dose 2 µM)",53
2,"Cn1cnc2c(F)c(Nc3ccc(Br)cc3Cl)c(C(=O)NOCCO)cc21 [selumetinib] + O=C(CCCCCCC(=O)Nc1ccccc1)NO [vorinostat] (first compound 0.075 µM, partner dose 0.4 µM)",49
3,"CCN(CC)CCNC(=O)c1c(C)[nH]c(/C=C2\C(=O)Nc3ccc(F)cc32)c1C [sunitinib] + C=CCn1c(=O)c2cnc(Nc3ccc(N4CCN(C)CC4)cc3)nc2n1-c1cccc(C(C)(C)O)n1 [MK1775] (first compound 2 µM, partner dose 0.1 µM)",39.8
4,"COc1cc([C@@H]2c3cc4c(cc3[C@@H](O[C@@H]3O[C@@H]5CO[C@@H](C)O[C@H]5[C@H](O)[C@H]3O)[C@H]3COC(=O)[C@H]23)OCO4)cc(OC)c1O [etoposide] + CCN(CC)CCNC(=O)c1c(C)[nH]c(/C=C2\C(=O)Nc3ccc(F)cc32)c1C [sunitinib] (first compound 0.1 µM, partner dose 2 µM)",74.9
5,"Cn1cnc2c(F)c(Nc3ccc(Br)cc3Cl)c(C(=O)NOCCO)cc21 [selumetinib] + CN(C)S(=O)(=O)c1ccc2c(c1)/C(=C/c1cc3c([nH]1)CCCC3)C(=O)N2 [SU6656] (first compound 0.075 µM, partner dose 2 µM)",70.5
6,"C[C@]1(O)C[C@@H](c2nc(-c3ccc4ccc(-c5ccccc5)nc4c3)c3c(N)nccn32)C1 + NC(=O)Nc1cc(-c2cccc(F)c2)sc1C(=O)N[C@H]1CCCNC1 [AZD7762] (first compound 2 µM, partner dose 0.1 µM)",23
7,"C[C@]1(O)C[C@@H](c2nc(-c3ccc4ccc(-c5ccccc5)nc4c3)c3c(N)nccn32)C1 + OCCn1cc(-c2cnc3nnn(Cc4ccc5ncccc5c4)c3n2)cn1 [PF04217903] (first compound 2 µM, partner dose 5 µM)",91.4
8,"CCN(CC)CCNC(=O)c1c(C)[nH]c(/C=C2\C(=O)Nc3ccc(F)cc32)c1C [sunitinib] + OCCn1cc(-c2cnc3nnn(Cc4ccc5ncccc5c4)c3n2)cn1 [PF04217903] (first compound 2 µM, partner dose 5 µM)",118
9,"CCN(CC)CCNC(=O)c1c(C)[nH]c(/C=C2\C(=O)Nc3ccc(F)cc32)c1C [sunitinib] + Cc1cc(N2CCOCC2)cc2[nH]c(-c3c(NC[C@@H](O)c4cccc(Cl)c4)cc[nH]c3=O)nc12 [BMS536924] (first compound 2 µM, partner dose 1 µM)",82.5
10,"CCN(CC)CCNC(=O)c1c(C)[nH]c(/C=C2\C(=O)Nc3ccc(F)cc32)c1C [sunitinib] + CN(NC(=O)CC(=O)NN(C)C(=S)c1ccccc1)C(=S)c1ccccc1 [STA4783] (first compound 2 µM, partner dose 0.03 µM)",7.14
11,"CCN(CC)CCNC(=O)c1c(C)[nH]c(/C=C2\C(=O)Nc3ccc(F)cc32)c1C [sunitinib] + CN(C)S(=O)(=O)c1ccc2c(c1)/C(=C/c1cc3c([nH]1)CCCC3)C(=O)N2 [SU6656] (first compound 2 µM, partner dose 2 µM)",72.7
12,"CCN(CC)CCNC(=O)c1c(C)[nH]c(/C=C2\C(=O)Nc3ccc(F)cc32)c1C [sunitinib] + CC(C)(C)c1cnc(CSc2cnc(NC(=O)C3CCNCC3)s2)o1 [SNS-032] (first compound 2 µM, partner dose 0.05 µM)",74.6
13,"C[C@]1(O)C[C@@H](c2nc(-c3ccc4ccc(-c5ccccc5)nc4c3)c3c(N)nccn32)C1 + Cc1ccc(NC(=O)c2cccc(N(C)C)c2)cc1NC(=O)c1ccc(O)cc1 [ZM336372] (first compound 2 µM, partner dose 10 µM)",119
